# Results published in PMC10668032.
# The other results are listed elsewhere or left out. At the low end of the ranking, values are background and their order means little.
# Molecular target: SIX1 homeodomain (reference allele) (UniProt Q15475)
# Experiment: universal protein binding microarray
# Settings: Universal all-10-mer PBM (8x60K, AMADID 030236), 300 nM GST-tagged protein, Alexa Fluor 488 anti-GST; buffer, salt, pH and temperature not stated; high values mean tight binding; most listed sequences are background and not binding sites; double strand, one strand shown
row,Sequence,binding signal [E-score]
1,AAGCCTGG,-0.154
2,CAAGCAGC,-0.235
3,AGACAAAT,-0.165
4,GGCACAAC,-0.305
5,GGACCACA,-0.102
6,AAAGGCAT,-0.121
7,AAACAGCT,-0.0708
8,ATGAAAAA,-0.0614
9,CCCCGGGA,0.106
10,GGGCAGGA,0.224
11,ATTAATCG,0.16
12,ACGTATAG,0.189
13,CTCCAATC,0.0261
14,ACTTATGA,-0.148
15,AATTTAGA,-0.029
16,ACGTTCAT,-0.166
17,GCTCTCCC,-0.0111
18,ATGTCACA,-0.0732
19,AATAATGT,-0.032
20,CTAAAATC,-0.236
21,TTCGCCAA,-0.121
22,GCGTTGCC,-0.19
23,GATTGCGA,0.0564
24,CGGGGGAG,-0.00346
25,CATAGCAC,-0.0868

row,Sequence,binding signal [E-score]
1,ACTATAAC,-0.124
2,TATTACCA,0.166
3,GATTTGAC,0.0319
4,AGTGGGCA,-0.182
5,CAAAGCCA,-0.269
6,GCTGAACA,-0.228
7,CCATGGTC,-0.0922
8,CTGAGGCA,-0.107
9,CATTCGAG,0.0507
10,CTATCAAG,0.155
11,ATCTTACG,-0.113
12,ATTTCGCA,-0.228
13,CATGTCAG,-0.0821
14,CAGTATGG,-0.0299
15,CAAAAAAG,-0.251
16,TATTGCCA,0.049
17,ATAACTTG,-0.0106
18,CCGACCTC,-0.0749
19,CGAAATTA,-0.235
20,CGAAGTGC,-0.293
21,AGAATACG,0.218
22,CCTGCAAA,-0.0191
23,CGTAACTC,-0.196
24,CCGGTCTC,0.0914
25,AAGAATAT,0.0119

row,Sequence,binding signal [E-score]
1,AAATCCAT,0.121
2,GGTCGCAA,-0.0785
3,GTAGAGTA,0.181
4,CTTGCAAG,-0.0752
5,ATTCTCCA,0.0475
6,ATATTCGG,0.108
7,GCCGACCA,0.0371
8,ATGACTCG,-0.0829
9,ATCTCCTC,0.284
10,GGTGCCGA,-0.111
11,ACATGGAC,-0.206
12,AACTGTCC,-0.216
13,AGAGCCTA,-0.163
14,ACAACACT,-0.0613
15,GCCGGATA,0.409
16,ACACGGGC,0.179
17,GCCTGCGA,-0.197
18,GGGCGGCA,-0.0398
19,GGGCATTA,-0.0938
20,CGCCCAAA,-0.209
21,CGAGGCAG,-0.118
22,CCCTAGGA,0.0629
23,GGCTATAC,0.235
24,GTAAATAC,0.0624
25,GATCTTCC,0.246

row,Sequence,binding signal [E-score]
1,AGAGTGTC,0.0489
2,GGTTTGTA,0.123
3,CACTCCTG,0.0641
4,ATTCATTG,-0.0748
5,GCGAAACA,-0.262
6,AGCCAGGA,0.0776
7,CTTTCACA,-0.0977
8,CTATCCTA,0.198
9,GTGATTAA,0.0568
10,GACCGTCA,-0.228
11,CTATGATC,0.302
12,AACGGATG,0.0176
13,AAAGGTGA,0.0271
14,CATAACGA,-0.0576
15,AATTCCCG,-0.0766
16,AGTCGGGG,0.099
17,CAAACATG,-0.084
18,AACCAGTC,-0.113
19,ACCTCAGC,-0.104
20,AGCATAGC,-0.00155
21,ACACTGAT,0.218
22,ACCTGGAG,-0.0255
23,ATGCCCCC,-0.0992
24,CATACTGA,0.0287
25,ACCAAGGA,-0.00147

row,Sequence,binding signal [E-score]
1,CGTATGCC,-0.013
2,GAAGTATA,0.261
3,AGCTGTTG,-0.132
4,GACTACTA,-0.018
5,CCGACTCC,-0.084
6,AAAGTGTA,0.0648
7,ACGCTACG,-0.0976
8,CCGTCTTA,0.0906
9,ACCGTATC,0.449
10,ATATTCTA,0.176
11,CTACCGGA,0.0622
12,ATGGATGG,-0.0199
13,GGATGACC,0.205
14,ACCGCACG,-0.0634
15,TTACTCAA,0.0325
16,CTTGAATC,0.0498
17,GACACTCC,0.258
18,CCACCCAG,-0.111
19,GATGAGCA,0.088
20,GGTTATAC,0.261
21,AAACGATG,-0.105
22,ATTTTCCA,0.0926
23,TCGAGTCA,-0.222
24,ACACCCCC,0.386
25,CTCGAGAA,-0.166

row,Sequence,binding signal [E-score]
1,GTCCTGAA,-0.0169
2,AACTGGAG,-0.0514
3,ACATTTGG,-0.0921
4,CTGCTCCA,-0.116
5,CAATTGTG,0.057
6,ACAGTCCT,-0.219
7,ACGGGACA,-0.0599
8,CTCGGTCC,-0.0609
9,GTGAAAAA,-0.145
10,ACGTTATG,-0.0556
11,ATACGCTG,0.268
12,GAACTCAA,-0.0511
13,AAGGAGTG,-0.0576
14,CGTTGGAC,-0.113
15,ACGCCCCT,0.0924
16,GACCAATC,-0.257
17,CGGCGCCA,-0.157
18,ATCCACAT,0.166
19,ATATCGAG,0.335
20,AGCGGCAC,-0.144
21,CGAGTAGA,0.0988
22,GCAGCAGC,-0.134
23,GAGGTACC,-0.063
24,GGGGCACA,0.075
25,AAGGGTAC,-0.063

row,Sequence,binding signal [E-score]
1,CCAGTGCG,-0.2
2,CCAACGGA,-0.0619
3,ACCTAGTA,-0.0718
4,GTGTCCTA,0.103
5,GAGCGTGC,-0.02
6,AGAGCGTA,-0.0387
7,CGCAGCGA,-0.0944
8,ATTGGCAG,-0.273
9,AAAAACTA,-0.0973
10,ATTCTGGA,0.0667
11,CTCATGAA,-0.0117
12,ACTCATAT,0.25
13,CGTAATTC,-0.115
14,ATGGGCCG,-0.0134
15,AGCGACTC,-0.286
16,AATCGTGT,0.0324
17,ACAATGGT,-0.187
18,TGCAGTAA,-0.109
19,GTGGGGCA,0.00297
20,ACACTGAG,0.114
21,ACCCGAGA,0.213
22,TACGAGAA,-0.0247
23,GCTGGTAA,-0.173
24,ATAGCCCC,0.181
25,GTCGTTCA,-0.227

row,Sequence,binding signal [E-score]
1,AATGCTGG,-0.0758
2,GCCTCACC,-0.312
3,AGTATACC,0.389
4,AAACATGC,-0.14
5,CCTTAACC,-0.258
6,AATGTAGT,-0.146
7,AGCTCGTG,0.102
8,AGCATCGA,-0.119
9,GCTTAGAC,-0.0677
10,ACCCCAAG,-0.0676
11,AATAGTGC,-0.139
12,ACATCGCG,-0.119
13,CGAACATC,-0.128
14,GTTCGATA,0.324
15,GATCGTCC,0.238
16,GAGACTAC,-0.00579
17,GTATATGA,0.225
18,AACTGATA,0.409
19,AATGCGTA,0.0336
20,CTCCAGAC,-0.142
21,TAACTGAA,-0.0622
22,CCTGGAAC,-0.0488
23,CCCTACCG,0.16
24,CCTTAACA,-0.0963
25,AAGATCTA,0.122

row,Sequence,binding signal [E-score]
1,AGATCAAG,0.232
2,CTCGCATC,0.11
3,AAGCCGAC,-0.00158
4,AACATCTT,-0.237
5,AGCCATTC,-0.244
6,GAGTGCAC,-0.0757
7,CGATGCCC,0.0139
8,AGCGACCT,-0.309
9,ACTTAAAT,-0.105
10,TGCTTCAA,-0.273
11,ATTCAAAA,0.00902
12,GATAGGAC,0.22
13,GTAATCCA,0.162
14,CTATCGGC,0.121
15,CCTCGTCC,-0.13
16,ACATATTG,0.108
17,AGCGCCCA,-0.287
18,GCTATACC,0.284
19,CTGATCAG,0.313
20,AGACGCCT,0.0241
21,GACCCTCA,-0.203
22,GAGTCAAC,-0.311
23,AACCGCCA,-0.149
24,AAGTCGTG,-0.167
25,CTCAAGGA,0.164

row,Sequence,binding signal [E-score]
1,CACTCGAC,0.0256
2,ATAGCTTC,0.149
3,CTATGTCC,-0.0555
4,AGGACCTC,-0.173
5,ATTGATAA,0.0956
6,CCCCCCAG,-0.0395
7,GGGTTGAA,-0.147
8,GCCTGACA,-0.144
9,CTTCCATC,0.0188
10,GAAGAAAC,-0.302
11,GCGGAGCA,-0.0867
12,GAAGGATA,0.268
13,ATTCCTTG,0.0804
14,ACCGGGCC,-0.0485
15,CAGCCTCC,-0.193
16,GGAAGGCC,-0.308
17,CTTAATGC,-0.054
18,CGGGAAGA,0.0155
19,ATTTTTTC,-0.0643
20,CACGAATC,-0.0746
21,GGCACGGA,-0.0973
22,GAAGATTA,0.144
23,AATATTTC,-0.0866
24,CTAATGCA,-0.131
25,GCGCGTCC,-0.124

row,Sequence,binding signal [E-score]
1,ATGTCACG,-0.0862
2,AAGATCGG,0.174
3,ATACTAGC,0.245
4,GTGCGAAC,-0.0853
5,CATTTGCG,-0.198
6,AAGACAGT,-0.186
7,GAGTTACA,-0.0412
8,GTCTCACA,0.138
9,ACCCCTGC,0.0292
10,GCCTCTTA,-0.173
11,TCCCAAGA,0.102
12,CCTAGGCG,-0.141
13,ACGATACG,0.432
14,TACCGCCA,0.0097
15,CCGATATA,0.333
16,ACCATGAG,0.0827
17,AACCAGCT,-0.0685
18,CGCAACAC,-0.0997
19,AGGTTCAG,0.0424
20,ACGCTCTC,-0.145
21,ACATGGCT,-0.106
22,CGTGCAAA,-0.117
23,GTTATGGA,-0.103
24,CTGGCCGA,-0.175
25,GCCGCGGA,-0.00539

row,Sequence,binding signal [E-score]
1,TGAGCAAA,-0.101
2,GGCTGCCC,-0.0149
3,ATGGAGAG,-0.071
4,AGATTCCT,0.0599
5,CGTACCTC,-0.246
6,AAACCAAA,-0.177
7,CAAGTTTC,-0.0788
8,AATTAATA,0.191
9,CATCAGAC,0.0453
10,ATGCCACG,-0.0265
11,AAACATTT,-0.239
12,ACTTCTTC,-0.202
13,CGCTCGTA,0.06
14,AGAATGTC,-0.115
15,AATACTTG,0.151
16,CGACATAC,-0.0677
17,GGGATACC,0.455
18,GCGGCGCC,-0.12
19,ATGCGGTC,-0.008
20,CGATAACG,-0.0326
21,AGAATGGG,-0.138
22,CGACTATA,-0.0154
23,AGTAGCTC,-0.12
24,ACAATGCC,-0.217
25,CGCCGCAA,-0.196

row,Sequence,binding signal [E-score]
1,GTTGATTA,-0.093
2,TAAATGTA,-0.0625
3,ACAGGGTG,-0.152
4,ACTGTCCT,-0.0567
5,AAGCGCGC,-0.223
6,GAGAAAAA,-0.276
7,CATAAATG,-0.116
8,GCACAGTA,-0.0604
9,ACTCCTCT,0.0686
10,GATCGTGA,0.229
11,AAATATAT,0.147
12,CTAAGGGA,0.101
13,GGCTAAGA,0.0134
14,CATAGGTA,0.108
15,GGATCAAA,0.372
16,GATGGAGC,-0.0452
17,AGCCGCCA,-0.0686
18,AATCTAGA,0.0851
19,GACTCTAC,-0.141
20,GCCATGGA,-0.148
21,CCCTACGA,0.0996
22,CCAATTGA,-0.0424
23,AAAAGTGA,-0.13
24,AGACCGGA,0.157
25,ACATTAGG,-0.0929

row,Sequence,binding signal [E-score]
1,AACCTGGC,-0.124
2,GATTGCTA,-0.00049
3,CAATTATG,-0.119
4,TTACGAAA,-0.22
5,ATTTTCGG,-0.0647
6,GTAGGGAC,-0.118
7,GTAAGTAA,-0.192
8,ACCGCTTC,-0.022
9,GTCTGTAA,0.0216
10,CCGGCACG,-0.137
11,GATCAGAA,0.138
12,ACAACCGT,-0.143
13,CAGCGTGG,-0.115
14,CTCCTACA,-0.0512
15,CCCGTAGC,-0.0697
16,CATCAAGC,-0.128
17,AGAAATAG,-0.0632
18,ACAAAAGG,-0.0158
19,CGTATACG,0.317
